Source: ChEMBL document CHEMBL4888484, “Replenishing the malaria drug discovery pipeline: Screening and hit evaluation of the MMV Hit Generation Library 1 (HGL1) against asexual blood stage Plasmodium falciparum ,using a nano luciferase reporter read-out” (2022)
Among all 150,000 compounds or so, about 540 (0.36%) showed an effect of 50% or more. This is one part of the list.

The compounds below were run on Plasmodium falciparum (assay: Primary screen in NF54 nanoGlo assay, in single point, at 2uM, 72h; a lower Z score goes with more inhibition). Conditions: timepoint 72 hour.
Format: functional, Erythrocyte

Row | Structure (SMILES) | % Inhibition [%] | Z score
1 | O=C(Cn1ccc2c(Cl)cccc21)NC[C@@H]1CCCN2CCCC[C@H]12 | 16 | -3.06
2 | Cn1nc(C(=O)N2CCOC3CCCCC32)c2ccccc2c1=O (stereo not drawn) | -11 | 1.84
3 | CN(Cc1cnc2ccccc2c1)C(=O)CCc1csc(N)n1 | -10 | 1.48
4 | CCn1nc(C)cc1C(=O)N1CCC[C@H](c2nc3c(C)cccc3[nH]2)C1 | -1 | 0.13
5 | CNc1cc([C@H]2C[C@H](NC(=O)CN3CCC(C)CC3)C2)ncn1 | 1 | -0.23
6 | CCC(C)(C)C(=O)N1CCC(N2C(=O)CC[C@H]2C(=O)NC(C)C)CC1 | -14 | 2.68
7 | COCc1nnc([C@@H]2CC(F)(F)CN2C(=O)c2ccoc2C)o1 | 10 | -1.73
8 | COc1ccc(C(=O)N2CCCCC[C@@H]2CN2CCOCC2)cc1OC | -3 | 0.45
9 | Cc1ccccc1-n1cc(-c2ccccc2)c2c(N3CCc4ccccc4C3)ncnc21 | 28 | -3.8
10 | Cc1ccccc1C[C@@]1(C2CCNCC2)NC(=O)N(CCc2ccncc2)C1=O | -11 | 1.09
11 | Cc1ccc(OCc2nc(COc3ccccc3)nn2CC(C)(C)O)cc1 | -2 | 0.26
12 | CC(=O)N[C@@H](C)C(=O)NCc1nc(-c2cccc(F)c2)c(-c2ccccn2)[nH]1 | 27 | -3.81
13 | CC(C)(C)OC(=O)N[C@H]1CNC[C@@H]1c1ccccc1F | -6 | 1.23
14 | Cc1ccc(NC(=O)c2cccn2-c2cccnc2)cc1C | -5 | 0.48
15 | COc1c[nH]c(C(=O)NCCOc2ccccc2F)cc1=O | -7 | 1.23
16 | COC(C)(C)CS(=O)(=O)Nc1cccc(Cl)c1O | 0 | -0.07
17 | CC(C)(C)Cc1nnc(NCc2cc(C#N)cs2)o1 | -21 | 1.86
18 | CCn1ccc(C(=O)N[C@@H]2[C@H]3CCO[C@H]3[C@H]2COC)n1 | 9 | -1.31
19 | CN(CCCc1ccccc1)c1cc(C2CC(O)C2)ncn1 (stereo not drawn) | -21 | 2.13
20 | CCCCOC1CC(N(C)Cc2nnnn2-c2ccccc2)C1(C)C (stereo not drawn) | -11 | 1.72
21 | Cc1cnccc1-c1cccc(C(=O)NC2(C(N)=O)CCCCCC2)c1 | -3 | 0.58
22 | O=C(NCCn1cc(-c2ccoc2)cn1)C1CCCC1 | 18 | -2.24
23 | O=C(C[C@H]1CCCOC1)NCc1ccno1 | -1 | 0.21
24 | COC(=O)[C@H](C)n1nc2c(S(=O)(=O)N3CCOCC3)cccn2c1=O | 1 | -0.15
